# The supplement of paper PMC11060735
# Several values for one entry are separate records, joined by “and”; a condition that tells them apart may be missing. Identical values can stand only once. Counter-ions that a name gives are not always drawn. Hit rate of the full screen: of about 1,800 compounds, about 50 (3%) showed activity. The list shows a part of the results.
# System: mouse p16Ink4a+/- lung fibroblasts (INKBRITE, bleomycin-injured)
# Test: percentage of GFP+ (p16Ink4a+) fibroblasts among all cells in well; higher = less depletion of p16Ink4a+ cells, active = 20 or less
# Conditions: 1 µM; 3 days
# 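Further: fibroblasts sorted 14 days after bleomycin, GFP+ and GFP− mixed 1:1 in 384-well plates (GFP− as in-well control), imaged after Hoechst and NucView530 staining, reference wells lacked compound.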
row,Compound,percentage of GFP+
1,OC(c1ccccc1)(c1ccccc1)C1CCNCC1 [Azacyclonol],inactive: 28.6%
2,CC[C@@]1(O)C(=O)OCc2c1cc1n(c2=O)Cc2cc3ccccc3nc2-1 [Camptothecin],inactive: 35.2%
3,C[C@@]12N[C@@H](Cc3ccccc31)c1ccccc12 [(-)-MK 801 Maleate],inactive: 41.5%
4,Cc1sc2c(c1C)C(c1ccc(Cl)cc1)=N[C@@H](CC(=O)Nc1ccc(O)cc1)c1nnc(C)n1-2,inactive: 24.8%
5,Cc1cccc(Cc2c[nH]cn2)c1C [Detomidine HCl],inactive: 49.8%
6,CCN(CC)C(=O)c1ccc(C2=CC3(CCNCC3)Oc3cccc(O)c32)cc1,inactive: 42.3%
7,CCc1c(C(=O)C(N)=O)c2c(OCC(=O)O)cccc2n1Cc1ccccc1 [Varespladib],inactive: 35.3%
8,O=C(O[C@H]1C[C@H]2CC[C@@H](C1)[N+]21CCCC1)C(O)(c1ccccc1)c1ccccc1 [Trospium],inactive: 48.4%
9,O=C1C=CC[C@@H]2[C@H]3CCCN4CCC[C@@H](CN12)[C@@H]34 [Sophocarpine],inactive: 40.3%
10,COC[C@H]1OC(=O)c2coc3c2[C@@]1(C)C1=C(C3=O)[C@@H]2CCC(=O)[C@@]2(C)C[C@H]1OC(C)=O [Wortmannin],inactive: 28.3%
11,CN1c2ccccc2C(NCCCCCCC(=O)O)c2ccc(Cl)cc2S1(=O)=O (configuration not stated) [Tianeptine],inactive: 29.5%
12,O=C(O[C@H]1C[N+]2(CCCOc3ccccc3)CCC1CC2)C(O)(c1cccs1)c1cccs1 [Aclidinium],inactive: 49.3%
13,N#CC(C#N)=Cc1ccc(O)c(O)c1,inactive: 38.7%
14,C[C@H]1CNCCc2ccc(Cl)cc21 [Lorcaserin],inactive: 47.1%
15,CC(C)(C)c1cc(C=C(C#N)C#N)cc(C(C)(C)C)c1O [Tyrphostin A9],inactive: 33%
16,CC(C)(C)c1cc(C=C(C#N)C#N)cc(Br)c1O,inactive: 40.7%
17,CN(C)[C@@H]1C(=O)C(C(N)=O)=C(O)[C@@]2(O)C(O)=C3C(=O)c4c(O)cccc4[C@@](C)(O)[C@H]3C[C@@H]12 [Tetracycline],inactive: 36.8%
18,CCCN1C[C@H](CSC)C[C@@H]2c3cccc4[nH]cc(c34)C[C@H]21 [Pergolide],inactive: 54.5%
19,CC(NC(C)(C)C)C(=O)c1cccc(Cl)c1 (configuration not stated),inactive: 53%
20,C[C@]12CC(C=O)=C(O)C[C@@H]1CC[C@@H]1[C@H]2CC[C@@]2(C)[C@H]1CC[C@@]2(C)O [Oxymetholone],inactive: 47.4%
21,CN(C)[C@@H]1C(=O)C(C(N)=O)=C(O)[C@@]2(O)C(O)=C3C(=O)c4c(O)cccc4[C@@](C)(O)[C@H]3[C@H](O)[C@@H]12 [Oxytetracycline],inactive: 42.3%
22,CN(C)CCc1ccc(O)cc1 [Hordenine],inactive: 37.4%
23,COC1=C[C@@H]2[C@@H]3Cc4ccc(OC)c(O)c4[C@]2(CCN3C)CC1=O [Sinomenine],inactive: 38.3%

row,Compound,percentage of GFP+
1,"CCC1(c2ccc(N)cc2)CCC(=O)NC1=O (racemic) [(¬±)-p-aminoglutethimide, Aminoglutethimide]",inactive: 40.7%
2,CC1(C)CC(O)CC(C)(C)N1O [Tempol],inactive: 48.4%
3,CC[C@H](C(=O)[C@H](C)[C@@H](O)[C@@H](C)[C@@H]1O[C@@H]([C@@H](CC)C(=O)O)CC[C@H]1C)[C@H]1O[C@]2(C=C[C@@H](O)[C@]3(CC[C@@](C)([C@H]4CC[C@](O)(CC)[C@H](C)O4)O3)O2)[C@H](C)C[C@H]1C [Salinomycin],inactive: 37.1%
4,C[C@]12CC[C@H]3[C@@H](CC[C@@]45O[C@@H]4C(O)=C(C#N)C[C@]35C)[C@@H]1CC[C@@H]2O [Trilostane],inactive: 44%
5,C[C@]12CC[C@H](O)CC1=CC[C@@H]1[C@@H]2CC[C@]2(C)C(=O)CC[C@@H]12 [Prasterone],inactive: 39%
6,CN1CCCCC1Cn1cc(C(=O)c2cc([N+](=O)[O-])ccc2I)c2ccccc21 (configuration not stated),inactive: 39.9%
7,Cc1cc(SCc2sc(-c3ccc(C(F)(F)F)c(F)c3)nc2C)ccc1OCC(=O)O,inactive: 45%
8,CC(C)[C@]12O[C@H]1[C@@H]1O[C@]13[C@]1(O[C@H]1C[C@H]1C4=C(CC[C@@]13C)C(=O)OC4)[C@@H]2O [Triptolide],active: 4.17%
9,C/C=C(\C)C(=O)N[C@@H](c1ccccc1)[C@@H](O)C(=O)O[C@H]1C[C@@]2(O)[C@@H](OC(=O)c3ccccc3)[C@@H]3[C@]4(OC(C)=O)CO[C@@H]4C[C@H](O)[C@@]3(C)C(=O)[C@H](OC(C)=O)C(=C1C)C2(C)C [Cephalomannine],inactive: 24.8%
10,C[N+]1(C)[C@@H]2C[C@@H](OC(=O)[C@H](CO)c3ccccc3)C[C@H]1[C@@H]1O[C@@H]12 [Methscopolamine Bromide],inactive: 37.9%
11,Oc1nc2ccc(Cl)cc2c(N[C@@H]2CN3CCC2CC3)c1-c1nc2ccccc2[nH]1,inactive: 20.3%
12,C[N+](C)(C)CCCCCCCCCC[N+](C)(C)C [Decamethonium],inactive: 58.1%
13,Cc1cccc([C@H](C)c2c[nH]cn2)c1C [Dexmedetomidine],inactive: 46.8%
14,O=C(Oc1ccc([N+](=O)[O-])cc1)N1CCC(C(O)(c2ccc3c(c2)OCO3)c2ccc3c(c2)OCO3)CC1,inactive: 55.8%
15,O=P1(NCCCl)OCCCN1CCCl (configuration not stated) [Ifosfamide],inactive: 45.7%
16,COc1ccc(CC2NCCc3cc(OC)c(OC)cc32)cc1OC (configuration not stated) [Tetrahydropapaverine HCl],inactive: 24.2%
17,"COc1ccc(C(CN(C)C)C2(O)CCCCC2)cc1 (configuration not stated) [Venlafaxine, Venlafaxine Hydrochloride]",inactive: 42%
18,O=C(O)c1nn(Cc2ccc(Cl)cc2Cl)c2ccccc12 [Lonidamine],inactive: 40.7%
19,Cc1ccccc1-n1c(Cn2ncc3c(N)ncnc32)nc2cccc(C)c2c1=O,inactive: 38.7%
20,CN(C)Cc1c[nH]c2ccccc12 [Gramine],inactive: 35.9%
21,CCN1CCN(C(=O)Cc2ccc(Nc3ncc(F)c(Nc4ccc(C(=O)Nc5ccccc5Cl)cc4)n3)cc2)CC1 [Aurora A Inhibitor I],inactive: 38.8%
22,CN1CCc2cc3c(cc2[C@H]1[C@@H]1OC(=O)c2c1ccc1c2OCO1)OCO3 [Bicuculline],inactive: 41.7%
23,C[C@@H]1[C@H](O)[C@@H](C)/C=C/C=C/CC/C=C/C=C/C=C/C=C/[C@H](O[C@H]2O[C@@H](C)[C@H](O)[C@@H](N)[C@H]2O)C[C@@H]2O[C@](O)(C[C@@H](O)[C@H](O)CC[C@@H](O)C[C@@H](O)C[C@@H](O)CC(=O)O[C@H]1C)C[C@H](O)[C@H]2C(=O)O [Nystatin (Fungicidin)],inactive: 43.1%

row,Compound,percentage of GFP+
1,CC(C)(C)[C@]1(O)C[C@@H]2OC(=O)C[C@@]23C(=O)O[C@@H]2OC(=O)[C@H](O)C213 (some centres not stated) [Bilobalide],inactive: 47.1%
2,C=C[C@H]1CN2CCC1C[C@H]2[C@H](O)c1ccnc2ccccc12 (some centres not stated) [Cinchonidine],inactive: 41.1%
3,C[C@@H]1O[C@@H](O[C@H]2C[C@@H](O)[C@]3(CO)[C@H]4[C@H](O)C[C@]5(C)[C@@H](C6=CC(=O)OC6)CC[C@]5(O)[C@@H]4CC[C@]3(O)C2)[C@H](O)[C@H](O)[C@H]1O [Ouabain],inactive: 50.5%
4,C/C(=C\c1csc(C)n1)[C@@H]1C[C@@H]2O[C@@H]2CCC[C@H](C)[C@H](O)[C@@H](C)C(=O)C(C)(C)[C@@H](O)CC(=O)O1 [Epothilone A],inactive: 34.7%
5,C=CCN1CC[C@]23c4c5ccc(O)c4O[C@H]2C(=O)CC[C@@]3(O)[C@H]1C5 [Naloxone],inactive: 44.1%
6,COc1cc(OC)c(OC)cc1C=O [Asarylaldehyde],inactive: 51.5%
7,Cc1cc(C(=O)CN2CCCC2)c(C)n1-c1ccc(F)cc1,inactive: 51.3%
8,Cc1cccc(C(C)c2c[nH]cn2)c1C (configuration not stated) [Medetomidine HCl],inactive: 37.5%
9,CN1[C@@H]2CC[C@H]1C[C@@H](OC(=O)C(CO)c1ccccc1)C2 (some centres not stated) [Atropine],inactive: 33.7%
10,CC(=O)OCC1=C(C(=O)O)N2C(=O)[C@H](N)[C@H]2SC1 [7-Aminocephalosporanic acid],inactive: 40.5%
11,CCC1(c2cccc(O)c2)CCCCN(C)C1 (configuration not stated) [Meptazinol HCl],inactive: 51.1%
12,c1ccc2c(c1)sc1ccccc12 [Dibenzothiophene],inactive: 48.2%
13,"CC(O)(CS(=O)(=O)c1ccc(F)cc1)C(=O)Nc1ccc(C#N)c(C(F)(F)F)c1 (configuration not stated) [(r)-bicalutamide, Bicalutamide]",inactive: 48.4%
14,Cc1cc(O)ccc1Cl [Chlorocresol],inactive: 50.5%
15,COc1cc(-n2c(=S)[nH]c3ccccc3c2=O)c(Cl)cc1Cl [Mdivi-1],inactive: 43.5%
16,Cc1cc(C(C#N)c2ccc(Cl)cc2)c(Cl)cc1NC(=O)c1cc(I)cc(I)c1O (configuration not stated) [Closantel],inactive: 46.5% and inactive: 50.1%
17,C[C@]12CC[C@H](O)C[C@@H]1CC[C@@H]1[C@@H]2CC[C@]2(C)C(=O)CC[C@@H]12 [Epiandrosterone],inactive: 50.6%
18,Nc1nc(N)nc(NC2CC2)n1 [Cyromazine],inactive: 39.5%
19,CC(=O)Nc1ccc(Cc2ccc(NC(C)=O)cc2)cc1,inactive: 44.5%
20,O=S(=O)(F)Cc1ccccc1,inactive: 54%
21,Cn1cc(C2=C(c3cn(C4CCN(Cc5ccccn5)CC4)c4ccccc34)C(=O)NC2=O)c2ccccc21 [Enzastaurin],inactive: 52.8%
